Measured values from ChEMBL document CHEMBL5107974, “Design, synthesis, and biological evaluation of new thalidomide-donepezil hybrids as neuroprotective agents targeting cholinesterases and neuroinflammation” (RSC Med Chem, 2022).

How the values were obtained:
Details in all cases: Electrophorus electricus
[1] = tested on: O=C(CN1C(=O)c2ccccc2C1=O)N1CCN(c2ccncc2)CC1; assay: Binding affinity to electric eel AChE assessed as maximum velocity using acetylcholine iodide as a substrate at 2 uM incubated for 10 mins by Lineweaver-Burk plot analysis
[2] = tested on: O=C(CN1C(=O)c2ccccc2C1=O)N1CCN(c2ccncc2)CC1; assay: Binding affinity to electric eel AChE assessed as maximum velocity using acetylcholine iodide as a substrate at 4 uM incubated for 10 mins by Lineweaver-Burk plot analysis
[3] = tested on: O=C(CN1C(=O)c2ccccc2C1=O)N1CCN(c2ccncc2)CC1; assay: Binding affinity to electric eel AChE assessed as Km using acetylcholine iodide as a substrate at 2 uM incubated for 10 mins by Lineweaver-Burk plot analysis
[4] = tested on: O=C(CN1C(=O)c2ccccc2C1=O)N1CCN(c2ccncc2)CC1; assay: Binding affinity to electric eel AChE assessed as Km using acetylcholine iodide as a substrate at 4 uM incubated for 10 mins by Lineweaver-Burk plot analysis

“Acetylcholinesterase (Electrophorus electricus) (no sequence given)” gave a Vmax [1] of 8.37 µM/min, a Vmax [2] of 7.3 µM/min and a Km [3] of 156 µM. The Km [4] was 254 µM.
